Reference: patent publication US20140105889A1 (published 2014)

Columns and labels:
[1] = molecular target: T1, mouse FcγRIV (mouse); assay: SPR (Biacore), antibody captured on Protein L, mouse FcγR as analyte, pH 7.4, 25 C
T1 construct: Bought soluble receptor; also called mFcgRIV; mFcgR IV

[2] = molecular target: T2, human FcRn (soluble human FcRn complexed with beta2-microglobulin) (human, UniProt P61769 part only); assay: SPR (Biacore), pH 7.0, 25 C, antibody captured by Protein L, human FcRn as analyte
T2 construct: also called hFcRn

Binder | BINDING AMOUNT(RU) [1] [RU] | Kd [2] [nM]
antibody with VH3-IgG1-F760 heavy chain and L(WT)-CK light chain (antibody, copies: 2 + 2) heavy: QVQLQESGPGLVKPSETLSLTCAVSGHSISHDHAWSWVRQPPGEGLEWIGFISYSGITNYNPSLQGRVTISRDNSKNTLYLQMNSLRAEDTAVYYCARSLARTTAMDYWGEGTLVTVSS[here human IgG1 constant region with L235R S239K (EU numbers) without letters] light: DIQMTQSPSSLSASVGDRVTITCRASQDISSYLNWYQQKPGKAPKLLIYYTSRLHSGVPSRFSGSGSGTDFTFTISSLQPEDIATYYCQQGNTLPYTFGQGTKVEIKRTVAAPSVFIFPPSDEQLKSGTASVVCLLNNFYPREAKVQWKVDNALQSGNSQESVTEQDSKDSTYSLSSTLTLSKADYEKHKVYACEVTHQGLSSPVTKSFNRGEC | 8.1 | 
IgG1-F1033 (antibody, name in EU numbering) heavy: QVQLQESGPGLVKPSETLSLTCAVSGHSISHDHAWSWVRQPPGEGLEWIGFISYSGITNYNPSLQGRVTISRDNSKNTLYLQMNSLRAEDTAVYYCARSLARTTAMDYWGEGTLVTVSS[here human IgG1 constant region with P238D N434W (EU numbers) without letters] light: DIQMTQSPSSLSASVGDRVTITCRASQDISSYLNWYQQKPGKAPKLLIYYTSRLHSGVPSRFSGSGSGTDFTFTISSLQPEDIATYYCQQGNTLPYTFGQGTKVEIKRTVAAPSVFIFPPSDEQLKSGTASVVCLLNNFYPREAKVQWKVDNALQSGNSQESVTEQDSKDSTYSLSSTLTLSKADYEKHKVYACEVTHQGLSSPVTKSFNRGEC |  | 1000
